± gives the standard deviation of the averaged measurements. Laboratory Escherichia coli strains with one amino-acid change in an essential protein, pooled on minimal glucose agar with carbenicillin or gentamicin at twice the control MIC (plus kanamycin and chloramphenicol for the plasmids), 48 h. Fold change of barcode share against drug-free plates; higher = less susceptible. Active = above 20 in both replicates (the paper's putatively resistant). '<' = one read or none on drug, '>' = one read or none on a drug-free plate. Shares are relative, so most strains fall below 1 when a few take over. Listed are strains with at least 15 reads on both drug-free plates, and hits; most hits rest on fewer reference reads. Replicate rank correlation about 0.5. Edits are read from barcodes.
Target: Escherichia coli (laboratory strain)
Test: barcode share on antibiotic plates over drug-free plates; higher = less susceptible
Experimental: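 A pool of E. coli strains, each edited to carry one amino-acid change in an essential protein, was grown for 48 h on minimal glucose agar with or without antibiotic; strain barcodes were sequenced; mean of two replicates.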

[1] = antibiotic: carbenicillin, 2× MIC (3.1 µg/mL)
[2] = antibiotic: gentamicin, 2× MIC (MIC 0.45 µg/mL)

| Protein | fold change of barcode share [1] | fold change of barcode share [2] |
| --- | --- | --- |
| asd L139A (protein) MKNVGFIGWRGMVGSVLMQRMVEERDFDAIRPVFFSTSQLGQAAPSFGGTTGTLQDAFDLEALKALDIIVTCQGGDYTNEIYPKLRESGWQGYWIDAASSLRMKDDAIIILDPVNQDVITDGLNNGIRTFVGGNCTVSAMLMSLGGLFANDLVDWVSVATYQAASGGGARHMRELLTQMGHLYGHVADELATPSSAILDIERKVTTLTRSGELPVDNFGVPLAGSLIPWIDKQLDNGQSREEWKGQAETNKILNTSSVIPVDGLCVRVGALRCHSQAFTIKLKKDVSIPTVEELLAAHNPWAKVVPNDREITMRELTPAAVTGTLTTPVGRLRKLNMGPEFLSAFTVGDQLLWGAAEPLRRMLRQLA | 0.309 ± 0.0049 | 0.00823 ± 0.0032 |
| murA V240A (protein) MDKFRVQGPTKLQGEVTISGAKNAALPILFAALLAEEPVEIQNVPKLKDVDTSMKLLSQLGAKVERNGSVHIDARDVNVFCAPYDLVKTMRASIWALGPLVARFGQGQVSLPGGCTIGARPVDLHISGLEQLGATIKLEEGYVKASVDGRLKGAHIVMDKVSVGATVTIMCAATLAEGTTIIENAAREPEIVDTANFLITLGAKISGQGTDRIVIEGVERLGGGVYRVLPDRIETGTFLAAAAISRGKIICRNAQPDTLDAVLAKLRDAGADIEVGEDWISLDMHGKRPKAVNVRTAPHPAFPTDMQAQFTLLNLVAEGTGFITETVFENRFMHVPELSRMGAHAEIESNTVICHGVEKLSGAQVMATDLRASASLVLAGCIAEGTTVVDRIYHIDRGYERIEDKLRALGANIERVKGE | 0.571 ± 0.51 | < 0.00274 |
| murA I169A (protein) MDKFRVQGPTKLQGEVTISGAKNAALPILFAALLAEEPVEIQNVPKLKDVDTSMKLLSQLGAKVERNGSVHIDARDVNVFCAPYDLVKTMRASIWALGPLVARFGQGQVSLPGGCTIGARPVDLHISGLEQLGATIKLEEGYVKASVDGRLKGAHIVMDKVSVGATVTAMCAATLAEGTTIIENAAREPEIVDTANFLITLGAKISGQGTDRIVIEGVERLGGGVYRVLPDRIETGTFLVAAAISRGKIICRNAQPDTLDAVLAKLRDAGADIEVGEDWISLDMHGKRPKAVNVRTAPHPAFPTDMQAQFTLLNLVAEGTGFITETVFENRFMHVPELSRMGAHAEIESNTVICHGVEKLSGAQVMATDLRASASLVLAGCIAEGTTVVDRIYHIDRGYERIEDKLRALGANIERVKGE | 0.249 ± 0.014 | < 0.00553 |
| murA I169W (protein) MDKFRVQGPTKLQGEVTISGAKNAALPILFAALLAEEPVEIQNVPKLKDVDTSMKLLSQLGAKVERNGSVHIDARDVNVFCAPYDLVKTMRASIWALGPLVARFGQGQVSLPGGCTIGARPVDLHISGLEQLGATIKLEEGYVKASVDGRLKGAHIVMDKVSVGATVTWMCAATLAEGTTIIENAAREPEIVDTANFLITLGAKISGQGTDRIVIEGVERLGGGVYRVLPDRIETGTFLVAAAISRGKIICRNAQPDTLDAVLAKLRDAGADIEVGEDWISLDMHGKRPKAVNVRTAPHPAFPTDMQAQFTLLNLVAEGTGFITETVFENRFMHVPELSRMGAHAEIESNTVICHGVEKLSGAQVMATDLRASASLVLAGCIAEGTTVVDRIYHIDRGYERIEDKLRALGANIERVKGE | 0.368 ± 0.12 | 0.00943 ± 0.0089 |
| murA I169Q (protein) MDKFRVQGPTKLQGEVTISGAKNAALPILFAALLAEEPVEIQNVPKLKDVDTSMKLLSQLGAKVERNGSVHIDARDVNVFCAPYDLVKTMRASIWALGPLVARFGQGQVSLPGGCTIGARPVDLHISGLEQLGATIKLEEGYVKASVDGRLKGAHIVMDKVSVGATVTQMCAATLAEGTTIIENAAREPEIVDTANFLITLGAKISGQGTDRIVIEGVERLGGGVYRVLPDRIETGTFLVAAAISRGKIICRNAQPDTLDAVLAKLRDAGADIEVGEDWISLDMHGKRPKAVNVRTAPHPAFPTDMQAQFTLLNLVAEGTGFITETVFENRFMHVPELSRMGAHAEIESNTVICHGVEKLSGAQVMATDLRASASLVLAGCIAEGTTVVDRIYHIDRGYERIEDKLRALGANIERVKGE | 0.326 ± 0.13 | 0.15 ± 0.2 |
| murA I169D (protein) MDKFRVQGPTKLQGEVTISGAKNAALPILFAALLAEEPVEIQNVPKLKDVDTSMKLLSQLGAKVERNGSVHIDARDVNVFCAPYDLVKTMRASIWALGPLVARFGQGQVSLPGGCTIGARPVDLHISGLEQLGATIKLEEGYVKASVDGRLKGAHIVMDKVSVGATVTDMCAATLAEGTTIIENAAREPEIVDTANFLITLGAKISGQGTDRIVIEGVERLGGGVYRVLPDRIETGTFLVAAAISRGKIICRNAQPDTLDAVLAKLRDAGADIEVGEDWISLDMHGKRPKAVNVRTAPHPAFPTDMQAQFTLLNLVAEGTGFITETVFENRFMHVPELSRMGAHAEIESNTVICHGVEKLSGAQVMATDLRASASLVLAGCIAEGTTVVDRIYHIDRGYERIEDKLRALGANIERVKGE | 0.212 ± 0.0045 | < 0.00502 |
| murA I169P (protein) MDKFRVQGPTKLQGEVTISGAKNAALPILFAALLAEEPVEIQNVPKLKDVDTSMKLLSQLGAKVERNGSVHIDARDVNVFCAPYDLVKTMRASIWALGPLVARFGQGQVSLPGGCTIGARPVDLHISGLEQLGATIKLEEGYVKASVDGRLKGAHIVMDKVSVGATVTPMCAATLAEGTTIIENAAREPEIVDTANFLITLGAKISGQGTDRIVIEGVERLGGGVYRVLPDRIETGTFLVAAAISRGKIICRNAQPDTLDAVLAKLRDAGADIEVGEDWISLDMHGKRPKAVNVRTAPHPAFPTDMQAQFTLLNLVAEGTGFITETVFENRFMHVPELSRMGAHAEIESNTVICHGVEKLSGAQVMATDLRASASLVLAGCIAEGTTVVDRIYHIDRGYERIEDKLRALGANIERVKGE | 0.198 ± 0.11 | < 0.00543 |
| murA L313A (protein) MDKFRVQGPTKLQGEVTISGAKNAALPILFAALLAEEPVEIQNVPKLKDVDTSMKLLSQLGAKVERNGSVHIDARDVNVFCAPYDLVKTMRASIWALGPLVARFGQGQVSLPGGCTIGARPVDLHISGLEQLGATIKLEEGYVKASVDGRLKGAHIVMDKVSVGATVTIMCAATLAEGTTIIENAAREPEIVDTANFLITLGAKISGQGTDRIVIEGVERLGGGVYRVLPDRIETGTFLVAAAISRGKIICRNAQPDTLDAVLAKLRDAGADIEVGEDWISLDMHGKRPKAVNVRTAPHPAFPTDMQAQFTLANLVAEGTGFITETVFENRFMHVPELSRMGAHAEIESNTVICHGVEKLSGAQVMATDLRASASLVLAGCIAEGTTVVDRIYHIDRGYERIEDKLRALGANIERVKGE | 0.227 ± 0.052 | 0.0285 ± 0.022 |
| asd L139Q (protein) MKNVGFIGWRGMVGSVLMQRMVEERDFDAIRPVFFSTSQLGQAAPSFGGTTGTLQDAFDLEALKALDIIVTCQGGDYTNEIYPKLRESGWQGYWIDAASSLRMKDDAIIILDPVNQDVITDGLNNGIRTFVGGNCTVSQMLMSLGGLFANDLVDWVSVATYQAASGGGARHMRELLTQMGHLYGHVADELATPSSAILDIERKVTTLTRSGELPVDNFGVPLAGSLIPWIDKQLDNGQSREEWKGQAETNKILNTSSVIPVDGLCVRVGALRCHSQAFTIKLKKDVSIPTVEELLAAHNPWAKVVPNDREITMRELTPAAVTGTLTTPVGRLRKLNMGPEFLSAFTVGDQLLWGAAEPLRRMLRQLA | 0.307 ± 0.087 | < 0.00638 |
| murA L313Q (protein) MDKFRVQGPTKLQGEVTISGAKNAALPILFAALLAEEPVEIQNVPKLKDVDTSMKLLSQLGAKVERNGSVHIDARDVNVFCAPYDLVKTMRASIWALGPLVARFGQGQVSLPGGCTIGARPVDLHISGLEQLGATIKLEEGYVKASVDGRLKGAHIVMDKVSVGATVTIMCAATLAEGTTIIENAAREPEIVDTANFLITLGAKISGQGTDRIVIEGVERLGGGVYRVLPDRIETGTFLVAAAISRGKIICRNAQPDTLDAVLAKLRDAGADIEVGEDWISLDMHGKRPKAVNVRTAPHPAFPTDMQAQFTLQNLVAEGTGFITETVFENRFMHVPELSRMGAHAEIESNTVICHGVEKLSGAQVMATDLRASASLVLAGCIAEGTTVVDRIYHIDRGYERIEDKLRALGANIERVKGE | 0.39 ± 0.084 | < 0.00345 |
| murA W95Q (protein) MDKFRVQGPTKLQGEVTISGAKNAALPILFAALLAEEPVEIQNVPKLKDVDTSMKLLSQLGAKVERNGSVHIDARDVNVFCAPYDLVKTMRASIQALGPLVARFGQGQVSLPGGCTIGARPVDLHISGLEQLGATIKLEEGYVKASVDGRLKGAHIVMDKVSVGATVTIMCAATLAEGTTIIENAAREPEIVDTANFLITLGAKISGQGTDRIVIEGVERLGGGVYRVLPDRIETGTFLVAAAISRGKIICRNAQPDTLDAVLAKLRDAGADIEVGEDWISLDMHGKRPKAVNVRTAPHPAFPTDMQAQFTLLNLVAEGTGFITETVFENRFMHVPELSRMGAHAEIESNTVICHGVEKLSGAQVMATDLRASASLVLAGCIAEGTTVVDRIYHIDRGYERIEDKLRALGANIERVKGE | 0.101 ± 0.073 | < 0.0092 |
| murB F54A (protein) MNHSLKPWNTFGIDHNAQHIVCAEDEQQLLNAWQYATAEGQPVLILGEGSNVLALEDYRGTVIINRIKGIEIHDEPDAWYLHVGAGENWHRLVKYTLQEGMPGLENLALIPGCVGSSPIQNIGAYGVELQRVCAYVDSVELATGKQVRLTAKECRFGYRDSIFKHEYQDRFAIVAVGLRLPKEWQPVLTYGDLTRLDPTTVTPQQVFNAVCHMRTTKLPDPKVNGNAGSFFKNPVVSAETAKALLSQFPTAPNYPQADGSVKLAAGWLIDQCQLKGMQIGGAAVHRQQALVLINEDNAKSEDVVQLAHHVRQKVGEKFNVWLEPEVRFIGASGEVSAVETIS | 0.335 ± 0.29 | – |

From the supplement of paper PMC11876631
